Source: paper PMC9911399, “Two distinct binding modes provide the RNA-binding protein RbFox with extraordinary sequence specificity”
Residue numbers refer to the chain shown, from its start. The list shows a part of the results.

T1: RBFOX1 RRM (Homo sapiens, UniProt Q9NWB1 109-208)
T1 sequence: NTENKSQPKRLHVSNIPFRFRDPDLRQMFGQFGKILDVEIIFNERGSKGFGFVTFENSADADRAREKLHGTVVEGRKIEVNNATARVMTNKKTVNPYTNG

B1: GCCCCGC (DNA:RNA)
RNA: GGGAGACCGGAAUUCAGAUUGUCCGCCCCGCUUAAAUCCCGUCGUAGCCACCA
DNA 1: CAATCTGAATTCCGGTCTCCC
DNA 2: TGGTGGCTACGACGGGATT
B2: GCAUAAA (DNA:RNA)
RNA: B1 RNA with C27A, C28U, C29A, G30A, C31A
DNA 1: CAATCTGAATTCCGGTCTCCC
DNA 2: TGGTGGCTACGACGGGATT
B3: UGCCUCA (DNA:RNA)
RNA: B1 RNA with G25U, C26G, C29U, G30C, C31A
DNA 1: CAATCTGAATTCCGGTCTCCC
DNA 2: TGGTGGCTACGACGGGATT
B4: AGAUGUA (DNA:RNA)
RNA: GGGAGACCGGAAUUCAGAUUGUCCAGAUGUAUUAAAUCCCGUCGUAGCCACCA
DNA 1: CAATCTGAATTCCGGTCTCCC
DNA 2: TGGTGGCTACGACGGGATT
B5: UGACAUA (DNA:RNA)
RNA: B4 RNA with A25U, U28C, G29A
DNA 1: CAATCTGAATTCCGGTCTCCC
DNA 2: TGGTGGCTACGACGGGATT
B6: ACCCACU (DNA:RNA)
RNA: B1 RNA with G25A, C29A, G30C, C31U
DNA 1: CAATCTGAATTCCGGTCTCCC
DNA 2: TGGTGGCTACGACGGGATT
B7: CGGUCUU (DNA:RNA)
RNA: B4 RNA with A25C, A27G, G29C, A31U
DNA 1: CAATCTGAATTCCGGTCTCCC
DNA 2: TGGTGGCTACGACGGGATT
B8: GGAUUAU (DNA:RNA)
RNA: B4 RNA with A25G, G29U, U30A, A31U
DNA 1: CAATCTGAATTCCGGTCTCCC
DNA 2: TGGTGGCTACGACGGGATT
B9: UCAACGC (DNA:RNA)
RNA: B1 RNA with G25U, C27A, C28A
DNA 1: CAATCTGAATTCCGGTCTCCC
DNA 2: TGGTGGCTACGACGGGATT
B10: CGGCCCA (DNA:RNA)
RNA: B4 RNA with A25C, A27G, U28C, G29C, U30C
DNA 1: CAATCTGAATTCCGGTCTCCC
DNA 2: TGGTGGCTACGACGGGATT
B11: GGCACAC (DNA:RNA)
RNA: B1 RNA with C26G, C28A, G30A
DNA 1: CAATCTGAATTCCGGTCTCCC
DNA 2: TGGTGGCTACGACGGGATT
B12: CUCCCAU (DNA:RNA)
RNA: B1 RNA with G25C, C26U, G30A, C31U
DNA 1: CAATCTGAATTCCGGTCTCCC
DNA 2: TGGTGGCTACGACGGGATT
B13: CUCGACA (DNA:RNA)
RNA: B4 RNA with A25C, G26U, A27C, U28G, G29A, U30C
DNA 1: CAATCTGAATTCCGGTCTCCC
DNA 2: TGGTGGCTACGACGGGATT
B14: AAAAGCU (DNA:RNA)
RNA: B4 RNA with G26A, U28A, U30C, A31U
DNA 1: CAATCTGAATTCCGGTCTCCC
DNA 2: TGGTGGCTACGACGGGATT
B15: GGCGCUC (DNA:RNA)
RNA: B1 RNA with C26G, C28G, G30U
DNA 1: CAATCTGAATTCCGGTCTCCC
DNA 2: TGGTGGCTACGACGGGATT
B16: GUCAUUA (DNA:RNA)
RNA: B4 RNA with A25G, G26U, A27C, U28A, G29U
DNA 1: CAATCTGAATTCCGGTCTCCC
DNA 2: TGGTGGCTACGACGGGATT
B17: CUUAAAU (DNA:RNA)
RNA: GGGAGACCGGAAUUCAGAUUGUCCCUUAAAUUUAAAUCCCGUCGUAGCCACCA
DNA 1: CAATCTGAATTCCGGTCTCCC
DNA 2: TGGTGGCTACGACGGGATT
B18: UGUUAUG (DNA:RNA)
RNA: B4 RNA with A25U, A27U, G29A, A31G
DNA 1: CAATCTGAATTCCGGTCTCCC
DNA 2: TGGTGGCTACGACGGGATT
B19: UCCGAUC (DNA:RNA)
RNA: B1 RNA with G25U, C28G, C29A, G30U
DNA 1: CAATCTGAATTCCGGTCTCCC
DNA 2: TGGTGGCTACGACGGGATT
B20: AGCCAAG (DNA:RNA)
RNA: B4 RNA with A27C, U28C, G29A, U30A, A31G
DNA 1: CAATCTGAATTCCGGTCTCCC
DNA 2: TGGTGGCTACGACGGGATT
B21: UAUCGGU (DNA:RNA)
RNA: B17 RNA with C25U, U26A, A28C, A29G, A30G
DNA 1: CAATCTGAATTCCGGTCTCCC
DNA 2: TGGTGGCTACGACGGGATT
B22: CUUUAGU (DNA:RNA)
RNA: B17 RNA with A28U, A30G
DNA 1: CAATCTGAATTCCGGTCTCCC
DNA 2: TGGTGGCTACGACGGGATT
B23: GGUACCU (DNA:RNA)
RNA: B17 RNA with C25G, U26G, A29C, A30C
DNA 1: CAATCTGAATTCCGGTCTCCC
DNA 2: TGGTGGCTACGACGGGATT
B24: CGCUGUC (DNA:RNA)
RNA: B4 RNA with A25C, A27C, A31C
DNA 1: CAATCTGAATTCCGGTCTCCC
DNA 2: TGGTGGCTACGACGGGATT
B25: UUAGUGU (DNA:RNA)
RNA: B17 RNA with C25U, U27A, A28G, A29U, A30G
DNA 1: CAATCTGAATTCCGGTCTCCC
DNA 2: TGGTGGCTACGACGGGATT
B26: AGGAGUU (DNA:RNA)
RNA: B4 RNA with A27G, U28A, A31U
DNA 1: CAATCTGAATTCCGGTCTCCC
DNA 2: TGGTGGCTACGACGGGATT
B27: CUAAUCG (DNA:RNA)
RNA: B17 RNA with U27A, A29U, A30C, U31G
DNA 1: CAATCTGAATTCCGGTCTCCC
DNA 2: TGGTGGCTACGACGGGATT
B28: GCCGCCU (DNA:RNA)
RNA: B1 RNA with C28G, G30C, C31U
DNA 1: CAATCTGAATTCCGGTCTCCC
DNA 2: TGGTGGCTACGACGGGATT
B29: UGACGCG (DNA:RNA)
RNA: B4 RNA with A25U, U28C, U30C, A31G
DNA 1: CAATCTGAATTCCGGTCTCCC
DNA 2: TGGTGGCTACGACGGGATT
B30: CGGUAAA (DNA:RNA)
RNA: B4 RNA with A25C, A27G, G29A, U30A
DNA 1: CAATCTGAATTCCGGTCTCCC
DNA 2: TGGTGGCTACGACGGGATT
B31: AGAUACA (DNA:RNA)
RNA: B4 RNA with G29A, U30C
DNA 1: CAATCTGAATTCCGGTCTCCC
DNA 2: TGGTGGCTACGACGGGATT

Biological target: T1, RBFOX1 RRM
Assay: EMSA; HiTS-Eq, 1 nM pool, 10 min; buffer printed only for the single-RNA assays: 10 mM Tris pH 7.5, 150 mM NaCl, 3.4 mM EDTA, 0.001% NP-40, 30 C
Conditions: tags: His6 N-terminal (pET28a); label: 5' 32P
Outline: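 These values rest on relative association constants, computed from read-count changes of each RNA species versus the control reaction and normalised to the cognate motif. Reads came from free RNA recovered by 8% native PAGE after purified RbFox RRM (wild type or mutant) at increasing concentrations was equilibrated for 10 min in 50 µL with 1 nM of a 5′-radiolabelled pool with 7 randomized nucleotides and DNA-annealed flanks.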

Binder | binding signal
B1 | 0.00766 KA relative to UGCAUGU
B2 | 0.00438 KA relative to UGCAUGU
B3 | 0.0121 KA relative to UGCAUGU
B4 | 0.00663 KA relative to UGCAUGU
B5 | 0.00936 KA relative to UGCAUGU
B6 | 0.00374 KA relative to UGCAUGU
B7 | 0.00672 KA relative to UGCAUGU
B8 | 0.0113 KA relative to UGCAUGU
B9 | 0.00648 KA relative to UGCAUGU
B10 | 0.00668 KA relative to UGCAUGU
B11 | 0.00325 KA relative to UGCAUGU
B12 | 0.00325 KA relative to UGCAUGU
B13 | 0.00741 KA relative to UGCAUGU
B14 | 0.00206 KA relative to UGCAUGU
B15 | 0.0316 KA relative to UGCAUGU
B16 | 0.00501 KA relative to UGCAUGU

Binder | binding signal
B17 | 0.00392 KA relative to UGCAUGU
B18 | 0.0205 KA relative to UGCAUGU
B19 | 0.00514 KA relative to UGCAUGU
B20 | 0.00281 KA relative to UGCAUGU
B21 | 0.0132 KA relative to UGCAUGU
B22 | 0.0114 KA relative to UGCAUGU
B23 | 0.01 KA relative to UGCAUGU
B24 | 0.0145 KA relative to UGCAUGU
B25 | 0.0175 KA relative to UGCAUGU
B26 | 0.0159 KA relative to UGCAUGU
B27 | 0.00688 KA relative to UGCAUGU
B28 | 0.0124 KA relative to UGCAUGU
B29 | 0.0215 KA relative to UGCAUGU
B30 | 0.00497 KA relative to UGCAUGU
B31 | 0.00472 KA relative to UGCAUGU
